# In all, about 350,000 compounds went through this assay and about 9,900 (2.8%) were called active. This list was built around the results that the source calls inconclusive (neither active nor inactive); the mix of calls is not that of the screen. Calls come from the whole dose curve; as a rule, active = well fitted activation curve with a large enough effect; inconclusive = small, poorly fitted or top-dose-only effect; inactive = no such curve, though single readings can be large or run the other way. No potency is given beside an inconclusive call; the fits are too rough.
# Assay: A quantitative high throughput screen for small molecules that induce DNA re-replication in MCF 10a normal breast cells. For activity, positive = re-replication: % of control where 0% means no effect. Note: nearly all actives have a fitted effect of over 50% in size.
# Settings: MCF 10A DNA re-replication, Hoechst nuclear intensity, 48 h; activity, positive = re-replication: at 46.1 µM (top of the series)
# Potency is the fitted concentration of half-maximal effect; tags give direction and shape of the fitted curve.
SMILES,Potency,"activity, positive = re-replication"
C=CCN(c1ccccc1)S(=O)(=O)c1cccc(C(=O)NC2CCN(Cc3ccccc3)CC2)c1,"inconclusive [activator, single point]",
CC1(c2nnc(-c3cccc(Cl)c3)o2)CC(c2ccccc2)=NO1 (stereo not drawn),"inconclusive [activator, full curve, poor fit]",
O=C1CCC/C=C\C[C@@H](CC(=O)N(CCO)Cc2ccccc2)C(=O)N[C@H](c2ccccc2)CO1,,inactive: 4.57%
CNC(=O)CSc1nnc(-c2ccncc2)n1Cc1ccccc1,"inconclusive [activator, partial curve, poor fit]",
CCOc1ccc(N2C(=O)C3CCCN3C2=S)cc1 (stereo not drawn),"inconclusive [activator, single point]",
CCOC(=O)CC(NC(C)=O)c1ccc([N+](=O)[O-])cc1 (stereo not drawn),"inconclusive [activator, single point]",
CCN(CC)c1ccc(/C=N/NC(=O)Cc2cccs2)c(O)c1,"inconclusive [activator, single point]",
CCOC(=O)C1=C(C)NC(=S)NC1/C=C/c1ccccc1 (stereo not drawn),"inconclusive [activator, partial curve, poor fit]",
O=C(Nc1nc2cc3c(cc2s1)OCO3)c1ccc(N2C(=O)CCC2=O)cc1,"inconclusive [activator, single point]",
COC(=O)c1c(C)oc(C)c1S(=O)(=O)Nc1ccc(C(C)C)cc1,"inconclusive [activator, full curve, poor fit]",
O=C(c1cc(Cl)cc(Cl)c1)N1CCC(=O)N(C(COCc2ccccc2)Cc2ccccc2)CC1 (stereo not drawn),"inconclusive [activator, partial curve, poor fit]",
O=C(Nc1ccc(SC(F)F)cc1)c1ccc2c(=O)n3c(nc2c1)CCC3,"inconclusive [activator, single point]",
CC(C)CCN(CCC(C)C)CC(O)Cn1c2ccccc2c(=O)c2ccccc21 (stereo not drawn),active: 3.26 µM,
Nc1nc2ccc([N+](=O)[O-])c(N)c2s1,"inconclusive [activator, single point]",
C[C@H]1COC(=O)[C@H](CC(=O)OC(C)(C)C)C/C=C\C[C@@H](CC(=O)N[C@H](CO)Cc2ccccc2)C(=O)N1,,inactive: -2.57%
CC(C)C[C@H](NC(=O)N1CCn2c1nc1ccccc12)C(=O)N1CCCCC1,,inactive: -6.92%
CCCN(CCC)C(C(=O)Nc1cccc(OC)c1)c1ccccc1 (stereo not drawn),"inconclusive [activator, single point]",
Nc1nc(Cl)cc(N2CCC(c3cc(-c4ccc(Cl)cc4Cl)n[nH]3)CC2)n1,"inconclusive [activator, partial curve, poor fit]",
CCCCNc1ccc(C(=O)Nc2cccc(C)n2)cc1[N+](=O)[O-],"inconclusive [activator, partial curve, poor fit]",
Cc1ccc(C(=O)O)cc1NC(=S)NC(=O)c1ccc(COc2ccccc2)cc1,"inconclusive [activator, partial curve, poor fit]",
O=C(C[n+]1cc[nH]c1)c1ccc(Cl)cc1,"inconclusive [activator, single point]",
CCCc1nc(N)c(C#N)c(N)c1C#N,"inconclusive [activator, full curve, poor fit]",
O=C(CSc1ncn[nH]1)N1N=C2/C(=C\c3ccco3)CCCC2C1c1ccco1 (stereo not drawn),,inactive: -0.0777%

SMILES,Potency,"activity, positive = re-replication"
CCOc1ccc(S(=O)(=O)n2cnc3cc(C)c(C)cc32)cc1,"inconclusive [activator, single point]",
N#Cc1ccccc1Oc1ccccc1C=O,"inconclusive [activator, single point]",
C/C(=N\NC(=O)c1cc2c(s1)CCC(C)C2)c1ccncc1 (stereo not drawn),active: 14.6 µM,
Cc1ccc(S(=O)(=O)c2cc3c(=O)n4ccccc4nc3n(Cc3ccco3)c2=N)cc1C,"inconclusive [activator, partial curve, poor fit]",
COc1cc(C(=O)NC2CCN(Cc3ccccc3)CC2)cc(Cl)c1OC(C)C,"inconclusive [activator, single point]",
CCOC(=O)c1c(N2C(=O)Nc3cc(Cl)c(Cl)cc3N2O)sc2c1CCCCC2,active: 2.31 µM,
CNC(=O)c1cccc(NC(=O)c2cc(-c3ccccc3)nc3c2cnn3C(C)C)c1,"inconclusive [activator, single point]",
Cc1ccc2c(c1)-c1c(cnn1CC(=O)N1CCCN(Cc3ccccc3F)C1)CO2,"inconclusive [activator, single point]",
CC(C)n1nc(C(=O)NC2CCCCCC2)c2ccccc2c1=O,"inconclusive [activator, single point]",
OCC1(Cc2ccccc2)CCN(C2CCN(c3ccc(F)c(F)c3)CC2)CC1,"inconclusive [activator, partial curve, poor fit]",
Cc1ccc(OCc2nnc(SCc3ccc(C#N)cc3)n2-c2ccc(C)cc2)cc1,"inconclusive [activator, full curve, poor fit]",
COc1cc2c(cc1OC)C(C)N(C(=O)C(NC(=O)c1ccccc1)C(C)C)CC2 (stereo not drawn),,inactive: -0.399%
CCCOc1ccc(N2C(=O)CC(NCCNc3ccc([N+](=O)[O-])cn3)C2=O)cc1 (stereo not drawn),,inactive: 0.231%
Cc1cccc(C)c1OCc1cc(C(=O)N(Cc2c(C)nn(C)c2C)C2CC2)no1,"inconclusive [activator, partial curve, poor fit]",
Cc1cccc(-c2nnc(SCC(=O)c3ccc(O)cc3O)n2C)c1,,inactive: 3.31%
O=C(/C=C/c1cccs1)c1ccc([N+](=O)[O-])cc1,,inactive: -0.702%
Cc1cc(C)cc(NC(=O)C(=O)NCC2CCCN2S(=O)(=O)c2cccs2)c1 (stereo not drawn),"inconclusive [activator, partial curve, poor fit]",
N#Cc1nc(-c2cccs2)oc1NCc1ccccc1Cl,"inconclusive [activator, single point]",
CS(=O)(=O)N1CCN(c2ccc(NC(=O)c3ccc([N+](=O)[O-])o3)cc2)CC1,active: 2.06 µM,
Cc1cc(C)c2[nH]c(=O)c(CN(Cc3nnnn3C3CCCC3)C3CCCCC3)cc2c1,,inactive: -0.703%
C=CCn1c(SCc2c(Cl)cccc2Cl)nnc1-c1cccnc1,"inconclusive [activator, partial curve, poor fit]",
c1cc2nnnn2nc1N1CCCCC1,"inconclusive [activator, full curve, poor fit]",
Cc1csc(=Nc2cccnc2)n1Cc1ccco1,,inactive: 22.5%

SMILES,Potency,"activity, positive = re-replication"
CCCn1c(=NC(=O)c2ccncc2)c(C#N)cc2c(=O)n3cccc(C)c3nc21,,inactive: -3.08%
CC(C)Sc1nc(N2CCOCC2)c2c3c(sc2n1)COC(C)(C)C3,"inconclusive [activator, single point]",
N#CC1(NC(=O)Cn2ncc(Cl)c(Cl)c2=O)CCCCC1,active: 4.47 µM,
O=C(Cc1cccc(NC(=O)C2CCCN(C(=O)CCc3ccccc3)C2)c1)Nc1ccc(C(=O)N2CCOCC2)cc1 (stereo not drawn),,inactive: 2.26%
COCCn1c(SCC(=O)c2c(N)n(C)c(=O)n(C)c2=O)nc2ccccc21,,inactive: 4.18%
N#Cc1c(C(F)(F)F)cc(-c2ccc(Cl)c(Cl)c2)nc1SCCN1CCOCC1,active: 4.11 µM,
CCOC(=O)N1CCc2c(sc3c2C(=O)NC(c2ccccc2)N3)C1 (stereo not drawn),"inconclusive [activator, single point]",
CCOCC(=O)Nc1cc(C(F)(F)F)ccc1Oc1cccc(Br)c1,,inactive: 3.31%
CCn1c2ccccc2c2nnc(SCC(N)=O)nc21,,inactive: -3.94%
O=C(Cn1ncc(Cl)c(Cl)c1=O)NCC1CCCCC1,active: 5.8 µM,
O=C(NC(Cc1ccccc1)C(=O)N1CCc2ccccc2C1)c1ccccc1 (stereo not drawn),"inconclusive [activator, single point]",
COc1ccc(C2CC(C(F)(F)F)n3nc(C(=O)NCCN4CCOCC4)cc3N2)cc1 (stereo not drawn),,inactive: -3.58%
NC1=NC(=Nc2ccc(Br)cc2)c2ccccc21,"inconclusive [activator, single point]",
CC(C)Oc1ccc(C(=O)Nc2ccc(N(C)C)cc2)cc1,"inconclusive [activator, single point]",
Cc1cc(NN)nc(Cc2ccccc2)n1,,inactive: 10.1%
COc1ccccc1-c1sc2ccccc2c1-c1ccc(Br)nc1,"inconclusive [activator, single point]",
N#C/C(=C/c1ccc(F)cc1)c1nnc(NC(=O)c2ccccc2)s1,"inconclusive [activator, partial curve, poor fit]",
CC1(C)CC(=O)C(C(=O)Cc2ccccc2[N+](=O)[O-])C(=O)C1,"inconclusive [activator, single point]",
Cc1cc(C)cc(NC(=O)C2CCN(c3nccs3)CC2)c1,"inconclusive [activator, partial curve, poor fit]",
Cc1ccc(NC(=O)/C=C/c2ccco2)cc1S(=O)(=O)N1CCCCCC1,"inconclusive [activator, single point]",
Cc1csc(NC(=O)CSc2nc3ccccc3c(=O)[nH]2)n1,"inconclusive [activator, partial curve, poor fit]",
Cc1ccc(SCCC(=O)OC(C(=O)NC(N)=O)C(C)C)cc1 (stereo not drawn),"inconclusive [activator, partial curve]",
